Test results from PubChem BioAssay AID504832 (National Center for Advancing Translational Sciences (NCATS), 2011).
Where “and” joins values, the source holds several entries; their conditions need not be identical. Equal entries are not always repeated. The campaign covered roughly 310,000 compounds. About 18,000 (5.8%) were called active. This list was built around the results that the source calls inconclusive (neither active nor inactive); the mix of calls is not that of the screen. Calls come from the whole dose curve; as a rule, active = well fitted inhibition curve with a large enough effect; inconclusive = small, poorly fitted or top-dose-only effect, or another doubt; inactive = no such curve, though single readings can be large or run the other way. Potencies of inconclusive entries are doubtful fits and often do not repeat.

Test: Primary qHTS for delayed death inhibitors of the malarial parasite plastid, 48 hour incubation
Settings: P. falciparum luciferase growth in erythrocytes; series mostly up to 28.7 µM
Summary of the method: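 A one-generation exposure of luciferase-tagged malaria parasites in RPMI 1640/Albumax erythrocyte culture, 37 C and 5% CO2. Inhibition is inferred from decreased luminescence after adding detection reagent.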
Potency is the fitted concentration of half-maximal effect; tags give direction and shape of the fitted curve.

Row | SMILES | Potency
1 | Clc1cccc(CN2CCSCC2)c1 | inconclusive: 18.5 µM [inhibitor, single point]
2 | CC(=O)CC(=O)Nc1nc(C)cc(C)n1 | inconclusive: 13.1 µM [inhibitor, single point]
3 | Cc1cc(NC(=O)CSCC(=O)N(c2ccc(F)cc2)C(C(=O)NC2CCCCC2)c2ccc(O)c(O)c2)no1 (stereo not drawn) | inconclusive: 1.04 µM [inhibitor, full curve]
4 | O=C(Nc1cccc(C(F)(F)F)c1)N1CCC(c2nc(-c3ccc(F)cc3)no2)CC1 | inconclusive: 9.28 µM [inhibitor, partial curve]
5 | O=S(=O)(c1cccc2nonc12)N1CCCCCC1 | inactive
6 | COc1cccc(-c2nnc(SCCC(=O)O)n2C)c1 | inactive
7 | CCn1c(SCC(=O)N/N=C/c2ccccc2OCC(=O)O)nnc1-c1ccccc1 | inconclusive: 18.5 µM [inhibitor, single point]
8 | Cc1ccc(NC(=O)N2C(=O)C3(OCCO3)c3ccccc32)cc1 | inactive
9 | CCCCCNc1nc(N2CCCC2)c2c(c1C#N)CCN(C)C2 | active: 4.15 µM
10 | COc1cc2c(cc1OC)C1O[C@](CCCCN3C(=O)c4ccccc4C3=O)(C2)OC2=C1C(=O)OC1(CCCCC1)C2 | inconclusive: 2.13 µM [inhibitor, partial curve, poor fit]
11 | Cc1cc2c3c([nH]c2cc1S(=O)(=O)NCc1ccc(CN2CCCCCC2)o1)CC(C)(C)CC3=O | inconclusive: 18.5 µM [inhibitor, single point]
12 | O=S(=O)(Nc1nc2ccccc2s1)c1cnc(Cl)c(Br)c1 | inactive
13 | CC(C)(C)N/C=C(\C#N)S(=O)(=O)c1ccc(Br)cc1 | inconclusive: 0.294 µM [inhibitor, full curve, poor fit]
14 | CCN(CC)CCCN(C(=O)c1ccccc1F)c1nc(-c2ccc(OC)cc2)cs1 | active: 4.15 µM
15 | CCc1ccccc1NC(=O)CN(C)S(=O)(=O)c1ccc(-c2ccc(=O)[nH]n2)s1 | inconclusive: 6.57 µM [inhibitor, partial curve]
16 | Cc1ccc(-n2c(=O)c3sccc3n(Cc3cc(=O)n4cc(Cl)ccc4n3)c2=O)cc1F | inconclusive: 14.7 µM [inhibitor, single point]
17 | Cc1cc(C)cc(C(=O)NCCCc2ccccc2)c1 | inactive
18 | CCOc1ccc(CCNC(=O)COC(=O)c2ccc3c(c2)OCCO3)cc1OCC | inconclusive: 18.5 µM [inhibitor, single point]
19 | CCc1nnc(NC(=O)C2Cc3ccccc3CN2S(=O)(=O)c2c(C)c(C)cc(C)c2C)s1 (stereo not drawn) | inconclusive: 18.5 µM [inhibitor, single point]
20 | Cc1cccc(C(=O)NNC(=O)c2cccc([N+](=O)[O-])c2)c1 | inconclusive: 0.185 µM [inhibitor, full curve, poor fit]
21 | CCOC(=O)c1c(NC(=O)N/N=C/c2ccc(O)c(OC)c2)sc(C(C)=O)c1C | inconclusive: 1.31 µM [inhibitor, full curve]
22 | COCCCN(C(=O)c1ccc2ccccc2n1)c1c(N)n(Cc2ccccc2)c(=O)[nH]c1=O | inactive
23 | CNc1nc(C23CC4CC(CC(C4)C2)C3)cs1 | inconclusive: 4.65 µM [inhibitor, partial curve, poor fit]

Row | SMILES | Potency
24 | CCOC(=O)N1CCC(N(CCOC)C(=O)Nc2ccc(CC)cc2)CC1 | inactive
25 | CC(=O)Nc1c2c(nn1-c1ccccc1C)CS(=O)(=O)C2 | inactive
26 | Cc1cnc(C(=O)Nc2ccccc2C(=O)N2CCOCC2)cn1 | inactive
27 | O=C(c1ccc(C(F)(F)F)cc1)C1CCCN(Cc2ccncc2)C1 (stereo not drawn) | active: 11.7 µM
28 | CC(=O)Nc1ccc(S(=O)(=O)N(C)CC(=O)NCCC2=CCCCC2)cc1 | inconclusive: 1.85 µM [inhibitor, partial curve]
29 | CSCCC(NC(=O)c1ccccc1)C(=O)N1CCN(Cc2ccc(Cl)cc2)CC1 (stereo not drawn) | active: 2.94 µM
30 | CN(C(=O)CSc1cc(C(=O)c2nccn2C)c2ccccc2n1)c1ccccc1 | inconclusive: 10.4 µM [inhibitor, single point]
31 | OCC1(Cc2ccccc2)CCN(Cc2cccc(F)c2F)CC1 | inconclusive: 18.5 µM [inhibitor, single point]
32 | O=C(N/C=C\n1cnc2cc(C(F)(F)F)ccc21)c1ccc([N+](=O)[O-])cc1 | inconclusive: 9.28 µM [inhibitor, single point]
33 | Cc1ccc(NC(=O)CN2C(=O)C3CC=C(Cl)CC3C2=O)cc1 (stereo not drawn) | inactive
34 | CCOc1cc(S(=O)(=O)NC2CCCCCC2)ccc1F | inactive
35 | CCn1cc(CCCC(=O)NCc2ccccc2OC)c2ccccc21 | inconclusive: 9.28 µM [inhibitor, partial curve]
36 | COc1cccc(CN2CCC(C(=O)Nc3ccc(-c4cccc(C)c4)cc3)CC2)c1O | inconclusive: 11.7 µM [inhibitor, single point]
37 | COc1ccc(NC(=O)c2ccco2)cc1NC(=O)COc1ccccc1 | inactive
38 | O=C(CCC(=O)N1CC2C[C@@H](C1)Cn1c2cccc1=O)NCCc1ccccc1 | inconclusive: 0.0657 µM [inhibitor, full curve, poor fit]
39 | Cc1ccc(CN(C)C(=O)CSc2nnc3n2CCCCC3)c(C)c1 | inconclusive: 10.4 µM [inhibitor, single point]
40 | CCc1ccc(NC(=S)Nc2cccc3cnccc23)cc1 | inconclusive: 10.4 µM [inhibitor, single point]
41 | CCN(CC)CCC[C@H](C)Nc1ccnc2cc(Cl)ccc12 | active: 0.0478 µM
42 | COCC1CCCN(Cc2cn(Cc3ccccc3)nc2-c2cc3ccccc3o2)C1 (stereo not drawn) | inconclusive: 10.4 µM [inhibitor, single point]
43 | COc1cccc(O)c1CN1CCC(n2nccc2NC(=O)c2ccc3c(c2)OCO3)CC1 | active: 11.7 µM
44 | CN1CCN(c2ccc([N+](=O)[O-])c(-n3nc(-c4ccccc4)c4ccccc4c3=O)c2)CC1 | inconclusive: 18.5 µM [inhibitor, single point]
45 | O=C(c1cc2ccccc2o1)N1CCN(S(=O)(=O)c2c(F)cccc2F)CC1 | inconclusive: 10.4 µM [inhibitor, single point]
46 | COc1cc(CC(=O)OCC(=O)NCc2ccc(C)cc2)cc(OC)c1OC | inconclusive: 13.1 µM [inhibitor, single point]

Row | SMILES | Potency
47 | Cc1nc2ccc(S(=O)(=O)N(C)CC(=O)NC(C)c3ccccc3)cc2s1 (stereo not drawn) | inconclusive: 2.08 µM [inhibitor, partial curve, poor fit]
48 | O=C(c1ccc(OC2CCN(C/C=C/c3ccc(F)cc3)CC2)cc1)N1CCCCC1 | active: 11.7 µM
49 | CCOc1ccc(-c2nnc(N3CCCCC3)c3ccccc23)cc1 | inconclusive: 9.28 µM [inhibitor, single point]
50 | COc1ccc(C2CC(c3ccccc3)=NN2C(=O)CN2CCN(Cc3ccccc3)CC2)cc1 (stereo not drawn) | inconclusive: 18.5 µM [inhibitor, partial curve, poor fit]
51 | CC(=O)Nc1ccc(NC(=O)CSc2nc3ccccc3nc2N2CCC(C)CC2)cc1 | inconclusive: 18.5 µM [inhibitor, single point]
52 | Cc1ccc(C)c(N2CCN(S(=O)(=O)c3cc4c(cc3Cl)NC(=O)CO4)CC2)c1 | inactive
53 | O=C(Nc1ccc(Cl)cc1)Nc1nnc(CSCc2ccccc2)s1 | inconclusive: 18.5 µM [inhibitor, single point]
54 | COc1ccccc1C(CNC(=S)NCc1ccccc1)N1CCCC1 (stereo not drawn) | inconclusive: 18.5 µM [inhibitor, single point]
55 | CC(C)C(C)(C#N)NC(=O)CSc1nc2scc(-c3ccco3)c2c(=O)n1-c1ccccc1 (stereo not drawn) | active: 9.28 µM
56 | Cc1ccccc1NC(c1cccc(Cl)c1)c1nnnn1C1CCCCC1 (stereo not drawn) | inconclusive: 0.522 µM [inhibitor, partial curve]
57 | COc1ccc(CNC(=O)CN2C(=O)CSc3ccc(S(=O)(=O)N4CCOCC4)cc32)c(OC)c1 | inactive
58 | O=C(CCS(=O)(=O)c1ccc(Br)cc1)NC1CCCCCC1 | inactive
59 | CN(/N=C/c1cc(Cl)cc(Cl)c1O)C(=S)NC(C)(C)C | inconclusive: 18.5 µM [inhibitor, single point]
60 | Cc1cc(C)nc(SCC(=O)OCN2C(=O)c3ccccc3C2=O)n1 | active: 1.85 µM
61 | CCc1ccc(NC(=O)Cn2c3[n+](c4c(F)c(F)ccc42)CCCCC3)cc1 | active: 3.7 µM
62 | COc1nc(NCc2cccnc2)nc(NC2CCCCC2)n1 | inconclusive: 18.5 µM [inhibitor, single point]
63 | O=C(O)c1cc(NC(=S)NC(=O)C(c2ccccc2)c2ccccc2)ccc1Cl | inconclusive: 5.22 µM [inhibitor, partial curve, poor fit]
64 | N=C1S/C(=C\c2ccc(-c3cccc(Cl)c3)o2)C(=O)N1c1nccs1 | active: 4.65 µM
65 | Cc1ccc(C)c(NC(=S)NNC(=O)c2ccco2)c1 | inactive
66 | COc1ccc(-c2cc(C(=O)Nc3ccc(S(=O)(=O)Nc4onc(C)c4C)cc3)c3ccccc3n2)cc1OC | inconclusive: 6.57 µM [inhibitor, partial curve, poor fit]
67 | COc1ccc(/C=N/NC(=O)COc2ccccc2-c2ccccc2)cc1 | inconclusive: 10.4 µM [inhibitor, partial curve]
68 | COC(=O)C1=C(C)NC(C)=C(C(=O)OC)C1c1ccccc1[N+](=O)[O-] | inconclusive: 19 µM [inhibitor, single point] and inconclusive: 13.1 µM [inhibitor, single point]
